From the supplement of paper PMC7826260
Some of the results follow. Cleavage of a single-stranded DNA pool by Rep nickase domains was read by sequencing (1 h at 37 °C, 3 µM enzyme); the outer parts of the 90-letter strands are left off. Numbers give uncut DNA relative to the enzyme-free pool, as log2; strong cutting gives strongly negative numbers. There is no active / inactive call. Because reads are shares of a total, they shift together; where an enzyme cuts many sequences, the uncut ones exceed 0.

These sequences were tested on T1, Rep nickase domain of tomato golden mosaic virus (assay: uncleaved DNA left, log2 of reads against the no-enzyme library (log2 ratio); higher = less cleavage (more negative = more Rep cleavage of the k-mer); sequences stand for … in CTCGTCCG…ACCGGAGA).
T1 sequence (residues 1-124 of Rep, tag left off): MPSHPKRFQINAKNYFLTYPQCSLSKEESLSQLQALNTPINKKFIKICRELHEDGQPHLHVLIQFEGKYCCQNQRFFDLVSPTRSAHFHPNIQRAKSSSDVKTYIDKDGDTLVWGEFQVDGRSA
Experimental: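 A pool of 90-nt single-stranded DNAs with seven random bases just before the constant AC of the nick site (name = the seven bases) was cut by 3 µM recombinant His6-SUMO-tagged Rep nickase domain (300 nM DNA, 50 mM HEPES pH 8.0, 50 mM NaCl, 1 mM MnCl2, 1 h, 37 °C, three replicates). Uncut DNA was amplified and sequenced.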

| Sequence | uncleaved DNA left (log2) |
| --- | --- |
| ACTAAGG | 0.132 |
| ACTTTTC | -0.00916 |
| GTGGATG | 0.171 |
| CTTGAAA | 0.0587 |
| TGATACG | -0.122 |
| CCTCCCT | -0.246 |
| GTCGAGT | 0.0622 |
| GCTGACC | 0.141 |
| AGACTGG | 0.0373 |
| GTCACTA | 0.175 |
| CCTAAGA | 0.0129 |
| AAATTAT | -3.48 |
| GCCCCAC | -0.12 |
| CAGCATG | -0.0162 |
| CTGATCA | 0.00653 |
| ACAATGA | 0.148 |
| GTATTTC | 0.0529 |
| AGTCGGG | -0.0572 |
| CCAATGA | -0.155 |
| TAGCAGG | 0.0692 |

| Sequence | uncleaved DNA left (log2) |
| --- | --- |
| TGAGGCC | 0.0853 |
| CGCCTCG | -0.0328 |
| AGAGCAT | -0.0282 |
| TGGCGCC | -0.0799 |
| CGGTTGT | -0.0774 |
| GTGTGAG | -0.235 |
| TTCCTCC | 0.0256 |
| AGTGGGC | 0.0969 |
| TTTATAA | -0.00766 |
| GGGTACG | 0.0156 |
| CACCAAG | -0.151 |
| TGCAAAA | 0.000169 |
| TTAAACT | -0.0588 |
| GCGCCTC | 0.021 |
| TAACGCC | -0.0882 |
| TAATTTA | -2.77 |
| ATCCGAT | -0.0335 |
| CAAGCGG | 0.0871 |
| AGTCGCC | 0.0136 |
| TCAATCT | -0.025 |
